# Out of some 150,000 compounds screened, about 540 (0.36%) showed an effect of 50% or more. The list shows a part of the results.
# Test system: Plasmodium falciparum
# Assay: Primary screen in NF54 nanoGlo assay, in single point, at 2uM, 72h; a lower Z score goes with more inhibition
# Format: functional, Erythrocyte
# Details: timepoint 72 hour
Structure (SMILES),% Inhibition,Z score
Cc1cnc(-n2cnnc2)c(-c2cc[nH]n2)c1,-4%,0.65
CNC(=O)c1cccc(NC(=O)N[C@H]2C[C@@H](OC(C)C)C2)n1,4%,-0.69
CCOc1ccc(C(=O)N[C@@H]2COCC[C@@H]2OCc2ccccn2)o1,-3%,0.57
CCc1noc(C)c1C(=O)Nc1cccc(-c2csc(C)n2)c1,-1%,0.11
COc1cc(OC)nc(-c2ccc(C(=O)N3CCCCCCC3)cc2)n1,-7%,1.33
CCn1c(=O)c(-c2ccc(C(=O)NC3CCCCC3)cc2)nc2ccccc21,-21%,1.98
Cc1cccc2c(=O)[nH]c(Cn3cc(C(F)(F)F)cc(Cl)c3=O)nc12,-15%,2.29
COCCn1ccc(NC(=O)C(=O)NCCCc2c[nH]c3ccccc23)n1,-13%,1.57
C[C@@H]1CN(C(=O)CCc2cn3ccccc3n2)C[C@]1(C)O,-2%,0.22
Cn1nc(C(F)(F)F)c2cc(C(=O)NCCc3ccc[nH]3)cnc21,-13%,1.28
O=C(NCc1cc[nH]n1)N1CCN(c2nccs2)CC1,-7%,1.39
CC(COc1ccc(F)c(F)c1)NCC(O)C1CCOCC1 (stereo not given),-11%,1.02
Cc1ccc2c(c1)N(S(C)(=O)=O)CC[C@@H](C(=O)Nc1ccccc1C(=O)N1CCCCCC1)O2,5%,-0.68
CC(C)(C)C[C@H]1CCN(C(=O)CCn2cnccc2=O)C1(C)C,-9%,1.22
COc1nc(-c2cnn(C)c2)cc(C(F)(F)F)n1,1%,-0.12
C#C[C@H](C)NS(=O)(=O)Cc1cc(OC)ccc1Br,-8%,1.48
COc1cc(Cl)c(C)cc1NC(=O)CN1CC[C@@]2(CCCOC2)C1,-9%,1.17
CC[C@@H]1Oc2ccc(NS(=O)(=O)c3ccc(Cl)cc3)cc2CN(CCc2ccccc2OC)C1=O,-13%,1.21
O=C(Cc1ccon1)N1CCN(c2ccccn2)CC1,-6%,0.67
Cc1ccccc1-c1cc(C(=O)N(C2CCCCC2)C2CCCCC2)c2ccccc2n1,-1%,0.21
CCCN(CCC)S(=O)(=O)N(C)Cc1ncccn1,-6%,1.13
O=C(CCc1cccc(Cl)c1)N1CCC(n2cnc3ncccc3c2=O)CC1,-11%,1.4

Structure (SMILES),% Inhibition,Z score
CCc1nc(CN(Cc2cn3c(n2)CCCC3)S(C)(=O)=O)cs1,-32%,3.78
C[C@H]1C[C@@H](C(=O)Nc2ccccc2OCc2cccc(Cl)c2)CCN1,2%,-0.23
CC(=O)c1ccc(OCCNC(=O)c2cn(-c3ccc(F)cc3)nn2)cc1,-21%,1.86
O=C(c1csc2c1CCCC2)N1CCC(CO)CC1,-7%,0.56
Cc1cccc([C@H](CNC(=O)CCc2ccno2)N(C)C)c1,-12%,1.82
Cn1cc([C@@H]2CCCCN2S(=O)(=O)c2ccc3c(c2)CCO3)cn1,-19%,2.48
C=C[C@H](C)NC(=O)N1CC(=O)N(CC)C1,-3%,0.43
Cn1nccc1NC(=O)Cn1ccc(-c2ccc(F)c(F)c2)n1,-7%,1.06
Fc1ccc(-c2nc(Nc3cccc(Cl)c3)nc3c2COc2ccccc2-3)cc1,-19%,2.78
Cc1nonc1N1CCN(C(=O)[C@@H](c2ccc3c(c2)OCO3)N(C)C)CC1,-10%,1.38
Cc1c[nH]c([C@H](C)NC(=O)c2conc2-c2ccccc2)n1,4%,-0.83
CC(=O)NCCN(C(=O)c1oc(Br)cc1C)c1ccc(Br)cn1,-1%,0.22
CNC(=NCC1(c2ccc(F)cc2)CC1)NC1CC1,2%,-0.25
CC1CCC2(CC1)OC[C@@H](C(=O)NCCN1CCOCC1)N2C(=O)c1ccccc1F (stereo not given in full),-4%,0.48
Cc1nc(C(C)C)c(C(=O)Nc2ccc(N3CCCS3(=O)=O)cc2)s1,-6%,0.6
CN(C[C@H]1COCCO1)C1CCN(c2ccc(NC(=O)CCCCc3ccccc3)cc2)CC1,8%,-0.98
O=C(CCc1nc(-c2ccsc2)no1)Nc1cccc(Cl)c1F,-8%,1.19
Cc1cccc(NS(=O)(=O)c2ccc3c(c2)OCCCO3)n1,3%,-0.44
CCCc1nnc(N(C)CCC(C)(C)O)s1,-18%,1.85
O=C(c1cnn2c1CCCC2)N1CCCS(=O)(=O)C[C@H]1C1CC1,2%,-0.38
Cc1nnc(CCNC(=O)c2ccc3nc(-c4ccc(F)cc4)cn3c2)[nH]1,-5%,0.79
O=c1ccc(-c2ccccc2)nn1CN(Cc1cccc(F)c1)C1CC1,-1%,0.16

Structure (SMILES),% Inhibition,Z score
CC(C)n1cc(CN(Cc2ccncc2)Cc2ccco2)cn1,-1%,0.17
Cc1ncn(C[C@H](O)COc2ccc(F)cc2)c(=O)c1C,-17%,2.39
Cc1cccc(N2CCN(C(=O)[C@H]3CCc4cncn4C3)CC2)c1C,-5%,1.13
O=C(Cc1ccc(F)cc1)N1CC(Cc2nncn2CC2CC2)C1,-1%,0.1
Cn1cc(NC(=O)NC(C)(C)CC(=O)OC(C)(C)C)cn1,11%,-1.48
CC(OC(=O)Cc1ccccc1CC#N)C1CCCCN1C(=O)OC(C)(C)C (stereo not given),-7%,0.86
CCOC(=O)C1(C[C@H]2CCCCO2)CCN(S(=O)(=O)c2ccc(F)cc2Cl)CC1,-9%,1.13
CC(C)c1nccc(NC[C@@H](O)CO)n1,-10%,1.6
CCn1ccc2ccn(CCNC(=O)c3cccc(-n4cnnn4)c3)c(=O)c21,-4%,0.84
O=C(NCc1cc(-c2cccs2)on1)c1ncc(-c2ccccc2)o1,10%,-1.42
Cc1cccc(OCC(=O)N2CCO[C@@H](COc3ccc(F)cc3)C2)c1,-10%,1.11
O=C1CCCN1CC[C@H]1CCCCN1C(=O)c1cnc(C2CC2)nc1,-7%,0.89
Cn1cc(-c2nc3cnccc3[nH]2)c(-c2ccc(Oc3ccccc3)cc2)n1,-2%,0.38
CC1CN(c2nccnc2C#N)CCN1C1C=CCCC1 (stereo not given),2%,-0.22
Cc1nc(N2CC[C@H](C3CCN(C)CC3)C2)sc1C,-6%,1.13
Cn1ncc(C(=O)Nc2ccccc2)c1C(=O)Nc1ccccc1,32%,-3.62
CC(C)(C)c1ccc(NC(=O)N2C3CCC2COC3)cc1,11%,-1.29
CC(C)CN1CCN(C(=O)c2nc3cnccc3s2)CC1=O,-2%,0.29
O=C(OCc1nc2ccc(F)cc2o1)c1scnc1C1CC1,-1%,0.18
COCC1(CNS(=O)(=O)C(C)C)CCCC1,-7%,0.95
Cc1ncc2c(c1-c1noc(-c3ccccc3-c3nc[nH]n3)n1)CCNC2,-9%,1.25
CC1=CC(=[N+](CCO)CCO)C=C/C1=C(\c1ccc(N(CCO)CCO)cc1C)c1ccccc1Cl,86%,-10.15

Structure (SMILES),% Inhibition,Z score
COCC(=O)NC1CN(C(=O)c2coc(C)c2)C1,0%,-0.07
CN(C(=O)Nc1ccc(-n2cnnn2)cc1)C1CCCCC1,-1%,0.1
COCCOc1ccccc1N1CCN(C(=O)CNC(=O)NC2CCCCC2)CC1,-12%,2.6
O=C(NC[C@@H]1COc2ccccc2C1)c1cnc[nH]c1=O,2%,-0.27
COc1ccc(-c2nnc3c4c(cnn23)nnn4-c2ccc(Cl)cc2)cc1,0%,0
O=C(Nc1ccc2c(c1)OCCO2)c1ccco1,8%,-0.9
CO[C@H]1CCCN(C(=O)NCC(C)(C)Oc2ccccc2)CC1,-7%,0.84
O=C(c1ccc2c(c1)OCCO2)N1CCN(c2ccccc2F)CC1,-9%,1.3
CCOc1nc2c(c(C)nn2-c2ccccc2)c(C)c1CCC(=O)N1CCCCCC1,-5%,0.79
CCc1nc(-c2ccccc2)nc(N2CCN(C(=O)COC)CC2)c1Cc1cc(C)ccc1C,-14%,1.69
COCCN(CC(=O)N1N=C(c2cccc(OC)c2)C[C@H]1c1ccc(Cl)cc1)C(=O)c1ccc(C(F)(F)F)cc1,0%,0.01
Cc1oc2c(c1C(=O)N1CCC(c3ncon3)CC1)C(=O)CCC2,6%,-1.16
CCN(CC)C1=Nc2ccccc2Oc2ccc(NC(=O)c3ccccc3Cl)cc21,-12%,1.54
COC(=O)Nc1ccc(Br)cn1,-5%,0.78
CCN(C)c1nc(N2CCN(c3ccccc3)CC2)nc2c1CN(C(=O)Nc1cccc(Cl)c1)CC2,0%,-0.03
COCCn1cc(NC(=O)c2c[nH]nc2C2CC2)cn1,-5%,0.74
CCN(C(=O)Cc1ccc(Cl)cc1Cl)c1ccc(C)nn1,1%,-0.22
Cc1nc([C@H](C)NS(=O)(=O)c2cccc3nsnc23)cs1,0%,-0.05
COCC(=O)N1CCC2(CCN(Cc3ccccc3)CC2)C1,2%,-0.21
